We go through 22 molecules from paper PMC12136788.

The list shows a part of the results.

T1: UNK ZnF1-3 (human, UniProt Q9C0B0 31-174)
T1 sequence: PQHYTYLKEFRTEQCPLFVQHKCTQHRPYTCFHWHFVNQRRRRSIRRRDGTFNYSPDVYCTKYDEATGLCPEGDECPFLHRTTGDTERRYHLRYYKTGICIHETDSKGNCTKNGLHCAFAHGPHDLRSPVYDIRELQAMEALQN

B1: chr3:176740097:176740098:-_ENSG00000177565_ENST00000430069|hu_mus|hu_hu_hu_mus_True|48_78 (ssRNA)
RNA: GGGAGUUCUACAGUCCGACGAUCUGUUUUGUAUACCACAAAAGGAGGCACUUUCAGUAUCUGUAAAAGGUGUUUAGUCCUAAAACAUACUUACCUAGAGGAUAACUCAGGAAAACAAUCUGUUACACUCUAAGACCUACUCCACAACAGAGGAUUGAGCAUCA
B2: chr8:81863377:81863378:-_ENSMUSG00000031681_ENSMUST00000066091|mus_mus|FALSE|FALSE (ssRNA)
RNA: GGGAGUUCUACAGUCCGACGAUCAGCAUUUUAGUUGAUUUUUACAACAGAAUGUCACAAUGUAAACUGAAAGGGUUCUUGCUAUCAACCAAGGCUUGUCAGUUUCUCAAUCCAAUAGUUGGUCACAGAGGUCAAGUAUUAUCGCAACAGAGGAUUGAGCAUCA
B3: chr9:128199989:128199990:-_ENSG00000119487_ENST00000373498|hu_hu|FALSE|FALSE (ssRNA)
RNA: GGGAGUUCUACAGUCCGACGAUCUUUAAGAUGCUGUUUUAGACACAUCUCUUCCUGUACAACAAUUUAAAAAAUGUUUCUAAUGCAGGUCCUCAGUGAAACACCGGUCCCCGGCCCUGGCUGGGGACAGUAAGGACAUCACCGCAACAGAGGAUUGAGCAUCA
B4: chr1:46073211:46073212:+_ENSG00000132780_ENST00000537798|hu_hu|FALSE|FALSE (ssRNA)
RNA: GGGAGUUCUACAGUCCGACGAUCAGUGACCUCAGCUUCAUUCGGUCCUUCUGGUGCUGCUCCUCCUUUUGCCUCUUCAGAGGUUUCAGUUAACCAAUCUAGAGUCAAGUCAACUUUUUCCUGUGGCUCCUCUGCAGAUUUACUCAACAGAGGAUUGAGCAUCA
B5: 56049922_56051489_482_CDS_ENSG00000146729_ENST00000322090|human|control|control (ssRNA)
RNA: GGGAGUUCUACAGUCCGACGAUCCUCCAACAGGAGCUGAUUCUUCCUGGAGAGAAGCAUGUCACUUCUUGCCUUACGAAAUUCCAAAAAUUCCUUAUUUUCUCUGAGUUUAUUCAUGACUUCUGUGAGGGCUGGAUAGCCUCCCAACAGAGGAUUGAGCAUCA
B6: 48629498_48633178_713_3pUTR_ENSMUSG00000031568_ENSMUST00000033973|mouse|control|control (ssRNA)
RNA: GGGAGUUCUACAGUCCGACGAUCCCCAGUUCCAGCCGCGAGGCAGCUCCCCUUUGUGAUCUGUUUUAUCUGCCAGCUUGCGUUUCUGAGCUUUGGAAAGUUGUUCUUUCUUCUCUUUUUUCUUACUUGAUGGGGCUGUGGUGGCAACAGAGGAUUGAGCAUCA
B7: chr3:176767854:176767855:-_ENSG00000177565_ENST00000430069|hu_hu|hu_hu_hu_mus_False|8_68 (ssRNA)
RNA: GGGAGUUCUACAGUCCGACGAUCGACAUCCUUGUUACUGGGCACGUCCUGCCCUCCUUCCCGUAUGCAAUGUCUAAGCACGAGCUGCGUAGGGCCACUCGUGCUGUUCUCACUGAGGUUCCAGAUUCUUGCUGUUGAGUCUCCCAACAGAGGAUUGAGCAUCA
B8: 4766894_4768318_1029_3pUTR_ENSG00000101265_ENST00000379400|human|control|control (ssRNA)
RNA: GGGAGUUCUACAGUCCGACGAUCACUUCCCGAUCUUCUUCCUCCUGGAGCUUCUGAAUGAAGCUUUUAAGUACCGGCAUCUCGAACUUUAUAUACUGGGCCACGUCGUAGGUGACUUCCUCCACCUGGUCCUUCUCCAUUAGGCAACAGAGGAUUGAGCAUCA
B9: chrX:71549400:71549401:+_ENSMUSG00000019087_ENSMUST00000019231|mus_hu|mus_mus_mus_hu_False|1_98 (ssRNA)
RNA: GGGAGUUCUACAGUCCGACGAUCGCAGUAGGAAGAGCAAACCUUUCCAGUCCAGUGCGCUGCAGGGUGGGAAAGCAACAACACGGACACCGUCCCACCCUCAACCCCCCCACUGGCACAGGGUCACACAAUCUGGGAAGUGAUCAACAGAGGAUUGAGCAUCA
B10: chr11:46405157:46405158:+_ENSG00000110492_ENST00000395566|hu_hu|hu_hu_hu_mus_False|1_58 (ssRNA)
RNA: GGGAGUUCUACAGUCCGACGAUCCCCUCCCCACUUUGGGCACUUGGUGUGGGCGUGAGAGGACAGGCGUGAUUGACAAAGCUAACGGGAAGACAAAAGGCACUGGUGGGUUAUAUCUUGGGCCUGUGGGAGAGGAGGCGUGGGCAACAGAGGAUUGAGCAUCA
B11: chr7:75932113:75932114:+_ENSG00000106211_ENST00000248553|hu_hu|hu_hu_hu_mus_False|8_78 (ssRNA)
RNA: GGGAGUUCUACAGUCCGACGAUCCUGCGACCACUCAUCGGGCAACCGGGGCACCCCGAAGGCCUGGUCGAAGAGGCGGCUGUGUGCAGGGUACCAGUCCCGGAAUGGUUCCCAGCUCGGGCUCCGCAGCGAGAAGGAGGGCACCAACAGAGGAUUGAGCAUCA
B12: chr9:14812383:14812384:-_ENSMUSG00000031934_ENSMUST00000164273|mus_mus|mus_mus_mus_hu_True|28_88 (ssRNA)
RNA: GGGAGUUCUACAGUCCGACGAUCAUAGCCCAGGUAGAUACACGCUAACAGUAUAACGAUGAGUGUCAGCAGGCGGCAGCUAAUGUACUUGAUGAUUAAAUUAUUAGAGUUCUUUUUUGUCUUCAAGUACUGCUCCACAAUUGGCAACAGAGGAUUGAGCAUCA
B13: chr11:4127340:4127341:+_ENSG00000167325_ENST00000300738|hu_mus|hu_hu_hu_mus_False|28_68 (ssRNA)
RNA: GGGAGUUCUACAGUCCGACGAUCGGCAUAGUCAGGGUGCUUCGUGGUCAAGGUCGCGGCUGUCUCAGCAGCCAAAGUGUCCAGUUCCACUGUGGUGACCCCACUAUACAAGCCUUGGAUUACUUUCAUGGUGAUCUGAGCAGGCAACAGAGGAUUGAGCAUCA
B14: chr12:39763582:39763583:-_ENSG00000139116_ENST00000544797|hu_mus|hu_hu_hu_mus_False|1_68 (ssRNA)
RNA: GGGAGUUCUACAGUCCGACGAUCCUCUAGGAACUGGGCAUUCACUUUGAAUUCAGGAGGGGGCAGCCCAUUUUUAAUCGCUGAGGUCUUUUUCUCAUCAAUACUCUUGAACAGGUGUCUAACAGCACGAGAGAUGAUACCCAGCAACAGAGGAUUGAGCAUCA
B15: 42222960_42223080_2227_3pUTR_ENSMUSG00000037287_ENSMUST00000125995|mouse|control|control (ssRNA)
RNA: GGGAGUUCUACAGUCCGACGAUCUAUGCGAUAAAGCUGUCAGGAAGUACAUUCAUUGAACAUGAAGAAAAAACCCCUAGAACAGGACGAGUGCCAGGUGACGGGAGUGACAGCUGAUCUACCCUGGAGGGGCUCCUGGGGCGCCAACAGAGGAUUGAGCAUCA
B16: chr17:64801638:64801639:+_ENSG00000154229_ENST00000413366|hu_mus|hu_hu_hu_mus_False|58_78 (ssRNA)
RNA: GGGAGUUCUACAGUCCGACGAUCUAUAUAUAUAUAUACAUAUGUACACAUAUAUAGUAAGAGCCUAGUUAAACGUGUAAACUAGCCAUUCAUUUUUAAAAUUACAUCUACAUUAAAAAAUUAAUAUAUCUGAUAGAGUGCCAGCAACAGAGGAUUGAGCAUCA
B17: 77256043_77256163_1379_CDS_ENSG00000127947_ENST00000248594|human|control|control (ssRNA)
RNA: GGGAGUUCUACAGUCCGACGAUCUGGAUGGUAUCUAUCAUUGUCCUGCCACACAGUAGUGACUGUUGGAAAAGCUGAAGGGGGAGAAGGUGUCAAGAUGGGUGGCACUGGAUGAGGUUCCGGUGGCUGCAGUAUUUCUUCUUUCAACAGAGGAUUGAGCAUCA
B18: chrX:153670519:153670520:+_ENSG00000203879_ENST00000447750|hu_hu|motif|central (ssRNA)
RNA: GGGAGUUCUACAGUCCGACGAUCAGCCGGCUCCACCUCCUUUUCAGGGUCCGUGGUCUCCACAGUAGUGCUGGCAAUAGCGGUGUACUUGCCCUGGGCCGCCACGUUGUGUGCAUAGGAGAUCAUGCACACGUAGAUGUCUGACAACAGAGGAUUGAGCAUCA
B19: chr1:220276048:220276049:+_ENSG00000067704_ENST00000302637|hu_hu|hu_hu_hu_mus_True|48_98 (ssRNA)
RNA: GGGAGUUCUACAGUCCGACGAUCGCAAAUUGCCUGGUUGGCUGGAAUUGUCCAAGGCUGGGUGGUCCAAACUAAAACGCUAACAGGAGAUGAACCAUCUGUAAGAGACUCCAACUUCGGAGGAGGUCUCAGGAGGGGGAAUCUCAACAGAGGAUUGAGCAUCA
B20: chr12:16048344:16048345:+_ENSG00000023734_ENST00000419869|hu_hu|hu_hu_hu_mus_True|1_38 (ssRNA)
RNA: GGGAGUUCUACAGUCCGACGAUCAGAUCGUCCAUAAGUAAUAACCAAAAUCUCUCCUUCAGGAAUAUACUCCAUGCUGCUAACAGACAUAUUAAAAUUUAGAGAUUUCACUUCUGUCAUUGUGGCAUGAUCCCAGAGUCGAACCAACAGAGGAUUGAGCAUCA
B21: chr7:149068622:149068623:-_ENSMUSG00000025139_ENSMUST00000001950|mus_hu|mus_mus_mus_hu_False|88_108 (ssRNA)
RNA: GGGAGUUCUACAGUCCGACGAUCGUGCAGGUACUGAGUGUGGCUUGUGCUCUGCAGUGGGUUAGAGUUGUUAAUAUCACGGAACAUACCAUCUAGAACGUUCCAGUCCCGCCUGACACCUUCAUUCCCAAUGGAGAAGAAAUCCAACAGAGGAUUGAGCAUCA
B22: 24593305_24594397_368_CDS_ENSMUSG00000019984_ENSMUST00000092646|mouse|control|control (ssRNA)
RNA: GGGAGUUCUACAGUCCGACGAUCUAUCAAAGAUUCACAAACCAUCCUGGGUGGAAGGAGACCAGUCUCAACUGCCAUUGCUAAGCAGUCAUAGAGGAAAGAAAUUCUUUUGGGGCUGUGUUGGCCAUGAAUAAAUUUAACAAUCAACAGAGGAUUGAGCAUCA

The target in the assay is T1, UNK ZnF1-3. The experiment in a line: nsRBNS (natural sequence RNA bind-n-seq); RBNS binding buffer (assumed for nsRBNS): 25 mM Tris pH 7.5, 150 mM KCl, 3 mM MgCl2, 0.01% Triton X-100, 500 ug/ml BSA, 20 U/ml SUPERase-In, 4 C; UNK is unkempt and MSI1 is Musashi-1; names of the RNAs are library labels; protein concentration not given here; high values mean tight binding.
On to B1, for which the binding signal is 0.861 enrichment R.

B2: the binding signal was determined as 1.58 enrichment R.

For B3, the binding signal was 0.643 enrichment R.

In turn, B4 returned a binding signal of 0.657 enrichment R.

On to B5, for which the binding signal amounted to 0.601 enrichment R.

Regarding B6, the binding signal was determined as 0.473 enrichment R.

The molecule B7 came in with a binding signal of 0.522 enrichment R.

As for B8, the binding signal was 0.76 enrichment R.

B9 registered a binding signal of 1.13 enrichment R.

B10 gave a binding signal of 2.96 enrichment R.

B11 gave a binding signal of 1.08 enrichment R.

With B12, the binding signal turned out to be 1.48 enrichment R.

The molecule B13 had a binding signal of 0.92 enrichment R.

As to B14, the binding signal worked out at 1.43 enrichment R.

Molecule B15 returned a binding signal of 1.23 enrichment R.

B16 came in with a binding signal of 1.76 enrichment R.

B17 returned a binding signal of 1.05 enrichment R.

Molecule B18 returned a binding signal of 1.14 enrichment R.

B19: the binding signal is 1.25 enrichment R.

B20: the binding signal is 1.26 enrichment R.

As to B21, the binding signal amounted to 0.813 enrichment R.

With B22, the binding signal came to 1.59 enrichment R.
